The test system of this test is V-C8 (BRCA2-deficient hamster cells). The experiment in a line: normalised cell viability (fraction of plate median); higher = more viable cells (less toxic). As to conditions: 5 µM. The essentials: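 Hamster V-C8 cells lacking BRCA2 and V-C8 cells with BRCA2 restored were seeded in 96-well plates. Library drugs (10 mM DMSO stocks) were added 24 h later at 5 μM in 100 μl medium, next to DMSO control wells, for 3 days (screen 1) or 6 days (screen 2). Cell viability was read by resazurin assay, median-plate normalised (modified robust per cent of sample), and triplicate wells were averaged.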

Where a name gives a salt, the structure may show the parent alone. ± gives the standard deviation of the averaged measurements. Whole data set: some 1,300 compounds, median “normalised cell viability” near 1, cut for the lowest 2% near 0.14. This is one part of the list.

On to `CN1[C@@H]2CC[C@H]1C[C@@H](OC(=O)C(CO)c1ccccc1)C2` (stereo partly drawn) [Atropine sulfate monohydrate], for which the normalised cell viability came to 0.884 ± 0.039 (treatment time: 3 days) and 1.13 ± 0.0053 (treatment time: 6 days).

In the case of `CNC(C)(C)Cc1ccccc1` [Mephentermine hemisulfate], the normalised cell viability (treatment time: 3 days) worked out at 0.881 ± 0.15 and the normalised cell viability (treatment time: 6 days) worked out at 0.9918 ± 0.0049.

Take `C[C@]12CCC(=O)C(O)=C1CC[C@@H]1[C@@H]2CC[C@]2(C)C(=O)CC[C@@H]12` [Formestane]: the normalised cell viability (treatment time: 3 days) stood at 0.964 ± 0.04 and the normalised cell viability (treatment time: 6 days) was determined as 1.04 ± 0.075.

As for `COc1ccc(C(CN(C)C)C2(O)CCCCC2)cc1` (stereo not drawn) [Venlafaxine], the normalised cell viability stood at 1.03 ± 0.025 (treatment time: 3 days) and 0.587 ± 0.061 (treatment time: 6 days).

With `CNC(=O)Oc1ccc2c(c1)[C@]1(C)CCN(C)[C@@H]1N2C` [Eserine sulfate, physostigmine sulfate], the normalised cell viability was found to be 0.839 ± 0.046 (treatment time: 3 days) and 1.06 ± 0.06 (treatment time: 6 days).

Turning to `CN(C)C(=O)Oc1cccc([N+](C)(C)C)c1` [Neostigmine bromide], the normalised cell viability is, setting by setting: (treatment time: 3 days) 1.14 ± 0.083; (treatment time: 6 days) 1.03 ± 0.07.

Consider `CC(C)(N)Cc1ccccc1` [Phentermine hydrochloride], for which the normalised cell viability is, setting by setting: (treatment time: 3 days) 1.02 ± 0.015; (treatment time: 6 days) 1.05 ± 0.057.

For `CCNCC(O)c1cccc(O)c1` (stereo not drawn) [Etilefrine hydrochloride], the normalised cell viability is 1.06 ± 0.023 (treatment time: 3 days) and 0.962 ± 0.077 (treatment time: 6 days).

On to `COc1cc([C@@H]2c3cc4c(cc3[C@H](O)[C@H]3COC(=O)[C@H]23)OCO4)cc(OC)c1OC` [Podophyllotoxin], for which the normalised cell viability runs as follows: (treatment time: 3 days) 0.126 ± 0.01; (treatment time: 6 days) 0.143 ± 0.0037.

Take `CCNC1(c2cccs2)CCCCC1=O` (stereo not drawn) [Tiletamine hydrochloride]: the normalised cell viability reads like this: (treatment time: 3 days) 1.08 ± 0.042; (treatment time: 6 days) 1.12 ± 0.037.

With `C[C@@H]1CC[C@H]2[C@@H](C)C(=O)O[C@@H]3O[C@@]4(C)CC[C@@H]1[C@]32OO4` [Artemisinin], the normalised cell viability turned out to be 0.239 ± 0.0087 (treatment time: 3 days) and 0.266 ± 0.0074 (treatment time: 6 days).

As to `CCC1(c2cccc(O)c2)CCCCN(C)C1` (stereo not drawn) [Meptazinol hydrochloride], the normalised cell viability is 1.24 ± 0.3 (treatment time: 3 days) and 1.01 ± 0.02 (treatment time: 6 days).

For the molecule `CCN(C(C)=O)c1cccc(-c2ccnc3c(C#N)cnn23)c1` [Zaleplon], the normalised cell viability is, setting by setting: (treatment time: 3 days) 1.13 ± 0.075; (treatment time: 6 days) 0.981 ± 0.063.

On to `NCCc1c[nH]c2ccc(O)cc12` [Serotonin hydrochloride], for which the normalised cell viability runs as follows: (treatment time: 3 days) 1.02 ± 0.071; (treatment time: 6 days) 1.08 ± 0.047.

On to `CCC(COC(=O)c1cc(OC)c(OC)c(OC)c1)(c1ccccc1)N(C)C` (stereo not drawn) [Trimebutine], for which the normalised cell viability was determined as 0.993 ± 0.041 (treatment time: 3 days) and 0.901 ± 0.12 (treatment time: 6 days).

The molecule `CC(=O)OCC1=C(C(=O)O)N2C(=O)[C@@H](N)[C@H]2SC1` [Cephalosporanic acid, 7-amino] came in with a normalised cell viability (treatment time: 3 days) of 1.06 ± 0.12 and a normalised cell viability (treatment time: 6 days) of 1.07 ± 0.043.

For the molecule `CO[C@]12C[C@@H](COC(=O)c3cncc(Br)c3)CN(C)[C@@H]1Cc1cn(C)c3cccc2c13` [Nicergoline], the normalised cell viability reads like this: (treatment time: 3 days) 0.886 ± 0.074; (treatment time: 6 days) 0.994 ± 0.033.

Regarding `C[N+]12CCC(CC1)C(OC(=O)C(O)(c1ccccc1)c1ccccc1)C2` (stereo not drawn) [Clidinium bromide], the normalised cell viability by setting is: (treatment time: 3 days) 1.02 ± 0.025; (treatment time: 6 days) 1.06 ± 0.016.

As for `C[C@@]12N[C@@H](Cc3ccccc31)c1ccccc12` [(-)-MK 801 hydrogen maleate], the normalised cell viability amounted to 1.031 ± 0.0088 (treatment time: 3 days) and 1.01 ± 0.0093 (treatment time: 6 days).

With `C[C@]12Cc3c[nH]nc3C[C@@H]1CC[C@@H]1[C@@H]2CC[C@@]2(C)[C@H]1CC[C@]2(C)O` [Stanozolol], the normalised cell viability reads like this: (treatment time: 3 days) 1.07 ± 0.064; (treatment time: 6 days) 1.06 ± 0.036.

`CC(C)C[C@H](CN)CC(=O)O` [Pregabalin] registered a normalised cell viability (treatment time: 3 days) of 1.07 ± 0.083 and a normalised cell viability (treatment time: 6 days) of 1.06 ± 0.047.

In turn, `CC(C)(C)NCC(O)c1ccccc1Cl` (stereo not drawn) [Tulobuterol] yielded a normalised cell viability (treatment time: 3 days) of 1.07 ± 0.015 and a normalised cell viability (treatment time: 6 days) of 1.05 ± 0.086.

Regarding `O=P1(NCCCl)OCCCN1CCCl` (stereo not drawn) [Ifosfamide], the normalised cell viability was 0.947 ± 0.064 (treatment time: 3 days) and 1.08 ± 0.019 (treatment time: 6 days).

As to `CC(C)c1c(CN(C)C(C)Cc2ccccc2)n(C)n(-c2ccccc2)c1=O` (stereo not drawn) [Famprofazone], the normalised cell viability by setting is: (treatment time: 3 days) 0.878 ± 0.018; (treatment time: 6 days) 0.899 ± 0.014.

On to `C=C(C)[C@@H]1[C@H]2OC(=O)[C@@H]1[C@]1(O)C[C@H]3O[C@]34C(=O)O[C@H]2[C@]14C` [Picrotoxinin], for which the normalised cell viability runs as follows: (treatment time: 3 days) 1.007 ± 0.0066; (treatment time: 6 days) 1.11 ± 0.061.

For `NC(=O)CN1CCCC1=O` [Piracetam], the normalised cell viability by setting is: (treatment time: 3 days) 1.04 ± 0.12; (treatment time: 6 days) 1.04 ± 0.06.

Take `COc1cc2c(cc1OC)C(C)NCC2` (stereo not drawn): the normalised cell viability runs as follows: (treatment time: 3 days) 1.04 ± 0.036; (treatment time: 6 days) 1.02 ± 0.017.

For `CC(=O)OCC(=O)[C@H]1CC[C@H]2[C@@H]3CC[C@H]4C[C@H](O)CC[C@]4(C)[C@H]3C(=O)C[C@]12C` [Alfadolone acetate], the normalised cell viability (treatment time: 3 days) came to 1.02 ± 0.04 and the normalised cell viability (treatment time: 6 days) came out at 1.07 ± 0.062.

The molecule `CN1CCN(C(=O)OC2c3nccnc3C(=O)N2c2ccc(Cl)cn2)CC1` (stereo not drawn) [Zopiclone] returned a normalised cell viability (treatment time: 3 days) of 1.11 ± 0.05 and a normalised cell viability (treatment time: 6 days) of 1.04 ± 0.061.

In the case of `Clc1ccc(C(OCCN2CCCCC2)c2ccccc2)cc1` (stereo not drawn) [Cloperastine hydrochloride], the normalised cell viability by setting is: (treatment time: 3 days) 0.783 ± 0.12; (treatment time: 6 days) 0.781 ± 0.093.

`C[C@]12CC[C@H](O)C[C@H]1CC[C@@H]1[C@@H]2C[C@@H](O)[C@]2(C)[C@@H](C3=CC(=O)OC3)CC[C@]12O` [Digoxigenin] registered a normalised cell viability (treatment time: 3 days) of 0.944 ± 0.025 and a normalised cell viability (treatment time: 6 days) of 1.03 ± 0.058.

Regarding `CC(=O)NC1CCSC1=O` (racemic) [N-Acetyl-DL-homocysteine Thiolactone], the normalised cell viability reads like this: (treatment time: 3 days) 1.02 ± 0.03; (treatment time: 6 days) 1.13 ± 0.069.

With `CC(Cc1ccccc1)NCCC(c1ccccc1)c1ccccc1` (stereo not drawn) [Prenylamine lactate], the normalised cell viability (treatment time: 3 days) was 0.811 ± 0.051 and the normalised cell viability (treatment time: 6 days) stood at 0.831 ± 0.065.

In the case of `NC(=O)C[S+]([O-])C(c1ccccc1)c1ccccc1` (stereo not drawn) [Modafinil], the normalised cell viability came out at 1.08 ± 0.021 (treatment time: 3 days) and 1.01 ± 0.047 (treatment time: 6 days).

On to `Cc1cccc(C)c1NC1=NCCCS1` [Xylazine], for which the normalised cell viability is, setting by setting: (treatment time: 3 days) 1.1 ± 0.11; (treatment time: 6 days) 1.03 ± 0.051.

Take `CCC1(c2ccc(N)cc2)CCC(=O)NC1=O` (stereo not drawn) [Glutethimide, para-amino]: the normalised cell viability by setting is: (treatment time: 3 days) 0.905 ± 0.023; (treatment time: 6 days) 0.971 ± 0.098.

Consider `CCN(C)C(=O)Oc1cccc([C@H](C)N(C)C)c1` [Rivastigmine], for which the normalised cell viability was determined as 1.03 ± 0.056 (treatment time: 3 days) and 0.987 ± 0.07 (treatment time: 6 days).

With `CC[C@@]1([C@@H]2O[C@@H]([C@H]3O[C@@](O)(CO)[C@H](C)C[C@@H]3C)C[C@@H]2C)CC[C@H]([C@]2(C)CC[C@]3(C[C@H](O)[C@@H](C)[C@@H]([C@@H](C)[C@@H](OC)[C@H](C)C(=O)O)O3)O2)O1` [Monensin sodium salt], the normalised cell viability (treatment time: 3 days) was determined as 0.156 ± 0.0082 and the normalised cell viability (treatment time: 6 days) is 0.128 ± 0.0063.

Take `CN(C)C(=O)Oc1cc(OC(=O)N(C)C)cc(C(O)CNC(C)(C)C)c1` (stereo not drawn) [Bambuterol hydrochloride]: the normalised cell viability by setting is: (treatment time: 3 days) 0.913 ± 0.044; (treatment time: 6 days) 0.998 ± 0.063.

`CCn1cc(C(=O)O)c(=O)c2cc3c(cc21)OCO3` [Oxolinic acid]: the normalised cell viability reads like this: (treatment time: 3 days) 1.05 ± 0.044; (treatment time: 6 days) 0.993 ± 0.051.

With `C[C@]12CC[C@H](O)C[C@@H]1CC[C@@H]1[C@@H]2CC[C@]2(C)C(=O)CC[C@@H]12` [Epiandrosterone], the normalised cell viability was 1.01 ± 0.021 (treatment time: 3 days) and 0.99 ± 0.066 (treatment time: 6 days).

In the case of `NCC(O)c1ccc(O)cc1` (racemic) [(+,-)-Octopamine hydrochloride], the normalised cell viability (treatment time: 3 days) came to 1.02 ± 0.083 and the normalised cell viability (treatment time: 6 days) is 1.1 ± 0.083.

For the molecule `CN1[C@@H]2CC[C@H]1C[C@@H](OC1c3ccccc3CCc3ccccc31)C2` [Deptropine citrate], the normalised cell viability is 0.924 ± 0.022 (treatment time: 3 days) and 0.775 ± 0.042 (treatment time: 6 days).

As to `C[C@]12CC[C@@H]3c4ccc(OC(=O)N(CCCl)CCCl)cc4CC[C@H]3[C@@H]1CC[C@@H]2O` [Estramustine], the normalised cell viability is, setting by setting: (treatment time: 3 days) 0.175 ± 0.019; (treatment time: 6 days) 0.213 ± 0.013.

Source of the values: the supplement of paper PMC6609913.
